The source of these data is US20260217826A1 (YALE UNIVERSITY, published 2026).

Experiment [1] has as its target TCR Vβ1. Put plainly: cell-based or functional assay.
For experiment [2], the target named is TCR Vβ13.6. The experiment in a line: cell-based or functional assay.

B1: mouse anti-Vβ1 CAR (other)
chain: QLQLVQSGPELREPGESVKISCKASGYTFTDYIVHWVKQAPGKCLKWMGWINTYTGTPTYADDFEGRFVFSLEASASTANLQISNLKNEDTATYFCARSWRRGIRGIGFDWGQGVMVTVSSGSTSGSGKPGSGEGSTKGDVQMTQSPYNLAASPGESVSINCKASKSINKYLAWYQQKPGKPNKLLIYDGSTLQSGIPSRFSGSGSGTDFTLTIRGLEPEDFGLYYCQQHNEYPPTFGCGTKLELKGTTTTPAPRPPTPAPTIASQPLSLRPEACRPAAGGAVHTRGLDFACDRRPPSKPFWVLVVVGGVLACYSLLVTVAFIIFWVRKRGRKKLLYIFKQPFMRPVQTTQEEDGCSCRFPEEEEGGCELASL[letters of about 120 residues not shown]
For B1, the “% area under "CD69 activation" (CD69 on CAR Jurkat effector cells after overnight co-culture with Jurkat target cells, flow cytometry)” value in experiment [1] was determined as 24.7%.

B2: mouse anti-Vβ13.6 CAR (other)
chain: EVQLQQSGPELVKPGASVKISCKASGYSFTGNYMNWVKQSPEKCLEWIGEINPNTGGTTYNQKLKAKATLTVDKSSSTAYMQLKSLTSEDSAVYYCARSEYYGIYYYAMDYWGQGTSVTVSSGSTSGSGKPGSGEGSTKGDIQMTQSPASLSASVGETVTMTCRTSENIYSNLVWYQQKQGKSPQFLVYAATNLAEGVPSRFSGSGSGTQFSLKINSLQPEDFGSYYCQHFYGTPRTFGCGTKLEIKGTTTTPAPRPPTPAPTIASQPLSLRPEACRPAAGGAVHTRGLDFACDRRPPSKPFWVLVVVGGVLACYSLLVTVAFIIFWVRKRGRKKLLYIFKQPFMRPVQTTQEEDGCSCRFPEEEEGGCELASL[letters of about 120 residues not shown]
For the molecule B2, the “% area under "CD69 activation" (CD69 on CAR Jurkat effector cells after overnight co-culture with Jurkat target cells, flow cytometry)” value in experiment [2] stood at 48.2%.
